Experimental findings from the supplement of paper PMC11417369 are described below.

The other results are listed elsewhere or left out.

This assay relates to PfSIP2 AP2 domain 1 (GST-tagged). Kind of assay: gcPBM binding intensity (ln(normalized median fluorescence intensity)); higher = stronger DNA binding. The method, boiled down:
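Binding intensity values are the highest Masliner-normalised natural-log median intensity among replicate spots of either probe orientation. The binding step lasted 1 h in 1× PBS with 1% milk, 0.2 mg/ml BSA, 0.5% salmon testes DNA and 0.03% Triton X-100, using GST-tagged P. falciparum DNA-binding domains expressed in E. coli on an Agilent 4 × 180k array of primer-extended double-stranded 36-bp intergenic genomic probes plus negative controls. Alexa488 anti-GST antibody and a 488 nm scan detected bound protein.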
For the sequence “AATAGTCGTGTGCATACACACCTTAACTATAATATA [CACACA_site6636]”, the “gcPBM binding intensity (ln)” value was determined as 7.41.

“AAGAAATAAAGCAAAACATGCACTCGAAAATGTTTT [TGCATGCA_site1014]”: the “gcPBM binding intensity (ln)” value turned out to be 7.85.

For “TTAGCAACTATTACTACACACATTTTTATATAACTT [CACACA_site6762]”, the “gcPBM binding intensity (ln)” value turned out to be 6.86.

“TATTGTTAAAATGAATAATTAAAACAGTAATGAATA [XGTACX_negctrl_site170]”: the “gcPBM binding intensity (ln)” value was 6.81.

As to “TATATATGTTTTTATGTACACACTTTTAACCTAAGA [CACACA_site1149]”, the “gcPBM binding intensity (ln)” value is 7.36.

Take “ATGTCTAATTTTGATGCACACTTTTGTGCAATTAAA [CACACA_site5589]”: the “gcPBM binding intensity (ln)” value was 8.91.

As for “CGCATGCAATGTTAATGTACATATATATATATATGT [XGTACX_site3316]”, the “gcPBM binding intensity (ln)” value came to 8.05.

Take “TATTATATTATGTGATGTACATATTTATATAGGCCC [XGTACX_site4746]”: the “gcPBM binding intensity (ln)” value stood at 7.26.

Turning to “ATTTATTGACTATTTACACACATATTTATTAAAATA [CACACA_site4980]”, the “gcPBM binding intensity (ln)” value was 7.22.

Regarding “TACGCTCCCAGACACACACACACACCGATATAATAT [CACACA_site8098]”, the “gcPBM binding intensity (ln)” value was 7.38.

With “TATTACATACCTTATTGTACAAATTATATATTAAAG [XGTACX_site7334]”, the “gcPBM binding intensity (ln)” value is 7.31.

With “ACAGTATCTGGTAGCTGTACGAGTCGTAGAGAGTAG [XGTACX_site2041]”, the “gcPBM binding intensity (ln)” value is 7.55.

As to “ATTCAGTTATATAATACACACATATATTGACATTAT [CACACA_site2723]”, the “gcPBM binding intensity (ln)” value was determined as 7.28.

“TGTAAGCACATACAAACACACAACATTATTTTTATC [CACACA_site2186]”: the “gcPBM binding intensity (ln)” value worked out at 6.97.

In the case of “TAGTATAATATGAACACACACACACGCACAAAAAAA [CACACA_site7035]”, the “gcPBM binding intensity (ln)” value stood at 7.22.

In the case of “ATCGTTATATAAAAATGTACTTATAAATTGTATACA [XGTACX_site6664]”, the “gcPBM binding intensity (ln)” value is 7.23.

In the case of “CAACATTTGATAAACACACAGAAGTATAAATATATA [CACACA_site2365]”, the “gcPBM binding intensity (ln)” value turned out to be 6.84.

Consider “AAAGGAAAAATCCAAGTGCATTATTATTTTCACAAA [GTGCAC_site9995]”, for which the “gcPBM binding intensity (ln)” value came to 9.1.

Turning to “TTTTTTTTTTTTTGATGTACAATTAATATTATAAAA [XGTACX_site6969]”, the “gcPBM binding intensity (ln)” value came out at 7.04.

For “ATTTCTTTTTTATTGAGTACATATGACCATGTTCAA [XGTACX_site5365]”, the “gcPBM binding intensity (ln)” value stood at 7.38.

For “CATTTTAAAGAAAATACACACAAAAATAGATATATA [CACACA_site6773]”, the “gcPBM binding intensity (ln)” value came to 6.86.

For the sequence “AGTAATAAATAATTTACACACATATTATATCATCAC [CACACA_site1890]”, the “gcPBM binding intensity (ln)” value was found to be 7.02.

With “GAAAAAAATGAAATTAGTACTTATCTTAAATTTTTA [XGTACX_site1018]”, the “gcPBM binding intensity (ln)” value worked out at 6.74.

In the case of “AAAAATATATAATAAAGTACACATAAATGAATAAAT [XGTACX_site329]”, the “gcPBM binding intensity (ln)” value is 7.12.

Take “TTTTCCCTCTTATTCACACAAAAAAAATAAAATAAA [CACACA_site4656]”: the “gcPBM binding intensity (ln)” value was found to be 7.25.

Consider TATTTATTTTTTTTTGTGCACTTAATATAATCTTAC, for which the “gcPBM binding intensity (ln)” value worked out at 10.4.

Take “ACACTAACATCATATCGTACATTTGTTAATTTATAA [XGTACX_site8654]”: the “gcPBM binding intensity (ln)” value is 7.42.

Regarding “TTTTTATTTATATGATACTTATATATATATATATAT [CACACA_negctrl_site462]”, the “gcPBM binding intensity (ln)” value was 9.5.

On to “TTCTTAATATTGCATGCACACTATATAATAATTGAA [CACACA_site4720]”, for which the “gcPBM binding intensity (ln)” value was determined as 8.15.

Take “TCTTTTAAAAAAATTTGTACATATTTTTTGTATTAT [XGTACX_site67]”: the “gcPBM binding intensity (ln)” value was determined as 7.22.

For the sequence “TGTTCTTTGTTCAGCGCATGTAAAATAAAATAAAAT [TGCATGCA_site629]”, the “gcPBM binding intensity (ln)” value came to 7.47.

On to “TTTTTTTTTGAATACAGTACACAAGTGTTAAGTTTA [XGTACX_site7069]”, for which the “gcPBM binding intensity (ln)” value amounted to 6.77.

In the case of “GATTGATTATATGTGTGTACTTATATGTTAAAAAAA [XGTACX_site4784]”, the “gcPBM binding intensity (ln)” value came out at 7.29.

“TATGAATATCTATACACACACATATATATACCCACT [CACACA_site4963]”: the “gcPBM binding intensity (ln)” value was determined as 7.07.

As to “GAAAGAATAAAATTTACACACATATAAATATACATA [CACACA_site7125]”, the “gcPBM binding intensity (ln)” value is 6.89.

For “AAAGGTGTCATATATGCACACAAAAGTAACACGCAC [CACACA_site8051]”, the “gcPBM binding intensity (ln)” value was determined as 8.81.

Take “TTTATTCTTGAGTATTGTACATATGTGTTTGTATAT [XGTACX_site5706]”: the “gcPBM binding intensity (ln)” value is 7.32.

Regarding “AGGAGGATGCATATGGCACACATTATGAAACTGTCG [CACACA_site299]”, the “gcPBM binding intensity (ln)” value is 7.23.

Regarding “TATATATATATATGTAGTACTCAATATTGTAGATTA [XGTACX_site3856]”, the “gcPBM binding intensity (ln)” value was 9.64.

Turning to “AAATATATGTATATATGTACATATGTGTGCTATCAT [XGTACX_site1604]”, the “gcPBM binding intensity (ln)” value is 7.27.

With “TAATTTTTTTTTAATTGTACATGTGAATATATTTCA [XGTACX_site4115]”, the “gcPBM binding intensity (ln)” value was determined as 6.8.

On to “GTTTACATTTTAAGAAGTACAAAATTTATGGTTAAA [XGTACX_site450]”, for which the “gcPBM binding intensity (ln)” value was found to be 7.29.

For “ATACATACAAAAATTTGTACATATTTCCAATAATGT [XGTACX_site2658]”, the “gcPBM binding intensity (ln)” value came out at 6.96.

In the case of “GAAAAAACGAAAAAAATACACACCTGAAAAGATATG [CACACA_site887]”, the “gcPBM binding intensity (ln)” value is 6.78.

For the sequence “GCCATAATATGACATACACACACAAAAAAAAAAAAA [CACACA_site8353]”, the “gcPBM binding intensity (ln)” value was determined as 7.07.
